For test [1], the target named is V5-tagged BCL7A WT (isoform a), expressed in HEK293T (human) (UniProt Q4VC05). The experiment in a line: V5-FLAG tandem affinity purification; cBAF isolated from HEK293T (WT or SMARCB1 CTD-deleted) co-overexpressing FLAG-DPF2 and V5-BCL7A WT or Δ20; Coomassie-stained SDS-PAGE, mass spectrometry, Western blot (Figures 1F, 1G, 3C, 3D). On the technique in general: In western blotting, separated proteins are transferred to a membrane and probed.

Amino acid sequences for entries named in this document (tags omitted). A change or cut given only in a name is not applied to a line headed by its entry. Chains listed by the source or under a name are the forms on record and can include a tag or linker.
V5-tagged BCL7A WT (isoform a), expressed in HEK293T (Q4VC05, form named): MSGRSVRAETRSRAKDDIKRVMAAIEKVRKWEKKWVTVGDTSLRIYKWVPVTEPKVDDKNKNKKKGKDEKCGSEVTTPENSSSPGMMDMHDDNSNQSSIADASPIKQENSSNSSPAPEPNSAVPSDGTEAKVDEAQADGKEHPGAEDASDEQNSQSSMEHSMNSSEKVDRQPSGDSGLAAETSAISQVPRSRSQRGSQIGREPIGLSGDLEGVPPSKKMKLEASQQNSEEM
V5-tagged BCL7A-Δ20, expressed in HEK293T (Q4VC05, form named): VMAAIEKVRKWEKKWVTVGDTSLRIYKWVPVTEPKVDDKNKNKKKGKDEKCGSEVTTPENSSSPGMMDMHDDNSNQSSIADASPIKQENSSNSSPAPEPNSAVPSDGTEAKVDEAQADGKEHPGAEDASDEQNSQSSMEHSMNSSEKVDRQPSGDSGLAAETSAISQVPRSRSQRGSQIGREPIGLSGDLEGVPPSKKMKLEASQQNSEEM
V5-tagged BCL7A-Δ31, expressed in OCI-LY1 (Q4VC05, form named): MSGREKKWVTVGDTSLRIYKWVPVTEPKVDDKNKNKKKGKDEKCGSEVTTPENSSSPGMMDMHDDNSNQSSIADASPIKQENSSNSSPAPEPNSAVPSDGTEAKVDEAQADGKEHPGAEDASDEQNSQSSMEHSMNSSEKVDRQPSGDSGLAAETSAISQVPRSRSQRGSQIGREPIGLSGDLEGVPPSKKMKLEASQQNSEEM
UniProt Q92785: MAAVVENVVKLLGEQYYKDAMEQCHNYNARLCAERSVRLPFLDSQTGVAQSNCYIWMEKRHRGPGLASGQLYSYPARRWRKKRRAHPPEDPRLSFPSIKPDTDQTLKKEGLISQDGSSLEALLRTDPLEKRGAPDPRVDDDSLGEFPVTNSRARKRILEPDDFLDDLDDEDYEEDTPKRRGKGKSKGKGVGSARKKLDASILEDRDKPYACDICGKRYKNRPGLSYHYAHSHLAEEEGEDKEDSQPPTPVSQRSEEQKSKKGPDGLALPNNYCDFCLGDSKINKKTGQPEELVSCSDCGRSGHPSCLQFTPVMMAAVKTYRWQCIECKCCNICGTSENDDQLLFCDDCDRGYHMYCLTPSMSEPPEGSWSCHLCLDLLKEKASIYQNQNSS
UniProt Q12824: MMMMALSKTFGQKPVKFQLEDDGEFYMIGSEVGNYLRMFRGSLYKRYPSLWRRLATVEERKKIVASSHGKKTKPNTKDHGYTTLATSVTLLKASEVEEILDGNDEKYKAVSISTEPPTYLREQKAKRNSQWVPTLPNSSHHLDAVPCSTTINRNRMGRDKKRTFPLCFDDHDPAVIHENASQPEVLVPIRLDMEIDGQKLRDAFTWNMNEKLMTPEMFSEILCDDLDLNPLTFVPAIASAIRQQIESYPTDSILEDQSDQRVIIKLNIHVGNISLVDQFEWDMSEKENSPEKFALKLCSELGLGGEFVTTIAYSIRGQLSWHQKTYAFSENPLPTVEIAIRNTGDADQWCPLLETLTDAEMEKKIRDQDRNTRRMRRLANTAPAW
UniProt Q9H8M2: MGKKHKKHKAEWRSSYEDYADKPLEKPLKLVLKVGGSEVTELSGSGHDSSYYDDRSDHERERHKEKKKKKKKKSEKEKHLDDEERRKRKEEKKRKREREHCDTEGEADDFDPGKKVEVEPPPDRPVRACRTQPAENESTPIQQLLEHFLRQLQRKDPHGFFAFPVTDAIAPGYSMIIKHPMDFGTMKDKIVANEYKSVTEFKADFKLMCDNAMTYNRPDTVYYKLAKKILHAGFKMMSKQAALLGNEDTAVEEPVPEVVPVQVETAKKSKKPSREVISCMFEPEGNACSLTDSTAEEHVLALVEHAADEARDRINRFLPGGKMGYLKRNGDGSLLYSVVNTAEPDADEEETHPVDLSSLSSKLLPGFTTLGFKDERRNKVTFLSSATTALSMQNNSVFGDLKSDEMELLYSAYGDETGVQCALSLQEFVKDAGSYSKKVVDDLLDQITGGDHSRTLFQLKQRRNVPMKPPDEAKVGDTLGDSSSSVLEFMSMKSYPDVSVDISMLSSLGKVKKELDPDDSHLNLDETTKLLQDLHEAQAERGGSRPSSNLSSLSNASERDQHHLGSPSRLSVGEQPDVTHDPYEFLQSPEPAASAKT

For test [2], the target named is V5-tagged BCL7A-Δ20, expressed in HEK293T (human) (UniProt Q4VC05). The description is as above.
Test [3] deals with V5-tagged BCL7A WT, expressed in OCI-LY1 (human) (UniProt Q4VC05). The experiment in a line: co-IP; anti-V5 immunoprecipitation from OCI-LY1 cells expressing V5-tagged BCL7A WT, truncations or point mutants; endogenous hSWI/SNF subunits detected (Figures 4B, 7D).
For test [4], the target named is V5-tagged BCL7A-Δ31, expressed in OCI-LY1 (human) (UniProt Q4VC05). Described as above.
Test [5] concerns the target V5-tagged BCL7A-Δ20, expressed in OCI-LY1 (human) (UniProt Q4VC05). The description is as above.
A further test has as its target FLAG-tagged DPF2 (human) (UniProt Q92785). The experiment in a line: V5-FLAG tandem affinity purification; cBAF isolated from HEK293T (WT or SMARCB1 CTD-deleted) co-overexpressing FLAG-DPF2 and V5-BCL7A WT or Δ20; Coomassie-stained SDS-PAGE, mass spectrometry, Western blot (Figures 1F, 1G, 3C, 3D).
The target of test [6] is V5-tagged BCL7A WT (isoform a), expressed in HEK293T (human) (UniProt Q4VC05). The experiment in a line: co-IP; anti-V5 immunoprecipitation from HEK293T cells expressing V5-tagged BCL7A WT, truncations or point mutants; endogenous hSWI/SNF subunits detected (Figures 1D, 7C).
The target in test [7] is V5-tagged BCL7A-Δ20, expressed in HEK293T (human) (UniProt Q4VC05). Described as above.

No constants are given. Whether binding was seen depends on the method and setting. For part of these data: Binding seen in cells or lysates may run through a third protein. Some results given as binding are weak or reduced against the parent protein; the word gives no strength.

“FLAG-tagged DPF2 (from UniProt Q92785 1-391)”: the binding entry in test [1] and in test [2] was “binds” throughout.
With “SMARCB1, endogenous in HEK293T (from UniProt Q12824 1-385)”, the binding entry in test [1] and in test [2] was “binds” throughout.
As for “BRG1, endogenous in OCI-LY1 (from UniProt P51532 1-1647)”, the binding result in test [3] is reported as “binds”; in test [4] it was “binds weakly”; in test [5] it was “binds”.
For the substance “BRG1, endogenous in HEK293T (from UniProt P51532 1-1647)”, the binding entry (in test [1]; in test [2]; with FLAG-tagged DPF2 (human)) was “binds” throughout.
As to “BRD9, endogenous in OCI-LY1 (from UniProt Q9H8M2 1-597)”, the binding entry in test [3] is given as “binds”; in test [4] it was “no binding”; in test [5] it was “binds”.
Consider “BRD9, endogenous in HEK293T (from UniProt Q9H8M2 1-597)”, for which the binding entry in test [6] and in test [7] was “binds” throughout.
